# Data as given in the supplement of paper PMC8728848.
# This is one part of the list.
# Tests used:
# Assay in all cases: glycan array binding signal (z-score within array); higher = stronger binding
# Settings in all cases: glycan notation: IUPAC condensed, linker removed
# [1] = target: GalNAc(b1-4)GlcNAc(b1-2)Man
# In short: (§1)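 Arrays were curated from the Consortium for Functional Glycomics database, 3228 in total, and kept only where the protein sequence was available. Binding is expressed as a within-array Z-score. This score was averaged across arrays of the same protein sequence at different concentrations or buffers and across linkers, and negative values can be read as non-binding.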
# [2] = target: GalNAc(b1-4)GlcNAc(b1-2)Man(a1-3)[GalNAc(b1-4)GlcNAc(b1-2)Man(a1-6)]Man(b1-4)GlcNAc(b1-4)GlcNAc
# In short: as §1
# [3] = target: GalNAc(b1-4)GlcNAc(b1-3)GalNAc(b1-4)GlcNAc
# In short: as §1
# GalNAc(b1-4)GlcNAc6S = target: GalNAc(b1-4)GlcNAc6S
# In short: as §1
# GalNAc(b1-6)GalNAc = target: GalNAc(b1-6)GalNAc
# In short: as §1
# GalNAc3S(b1-4)GlcNAc = target: GalNAc3S(b1-4)GlcNAc
# In short: as §1
# GalNAc3S(b1-4)GlcNAc3S = target: GalNAc3S(b1-4)GlcNAc3S
# In short: as §1
# [4] = target: GalNAc3S(b1-4)[Fuc(a1-3)]GlcNAc
# In short: as §1
# GalNAc4S6S(b1-4)GlcNAc = target: GalNAc4S6S(b1-4)GlcNAc
# In short: as §1
# GalNAc6S(b1-4)GlcNAc = target: GalNAc6S(b1-4)GlcNAc
# In short: as §1
# Glc(a1-4)Glc = target: Glc(a1-4)Glc
# In short: as §1
# [5] = target: Glc(a1-4)Glc(a1-4)Glc(a1-4)Glc
# In short: as §1
# Glc(a1-6)Glc(a1-6)Glc = target: Glc(a1-6)Glc(a1-6)Glc
# In short: as §1
# [6] = target: Glc(a1-6)Glc(a1-6)Glc(a1-6)Glc
# In short: as §1
# Glc(b1-4)Glc = target: Glc(b1-4)Glc
# In short: as §1
# Glc(b1-6)Glc = target: Glc(b1-6)Glc
# In short: as §1
# GlcA(b1-3)Gal = target: GlcA(b1-3)Gal
# In short: as §1
# GlcA(b1-3)GlcNAc = target: GlcA(b1-3)GlcNAc
# In short: as §1
# GlcA(b1-6)Gal = target: GlcA(b1-6)Gal
# In short: as §1
# [7] = target: GlcA3S(b1-3)Gal(b1-4)GlcNAc(b1-2)Man
# In short: as §1
# [8] = target: GlcA3S(b1-3)Gal(b1-4)GlcNAc(b1-3)Gal(b1-4)Glc
# In short: as §1
# [9] = target: GlcNAc(a1-3)Gal(b1-4)GlcNAc
# In short: as §1
# [10] = target: GlcNAc(a1-4)Gal(b1-3)GlcNAc
# In short: as §1
# [11] = target: GlcNAc(a1-4)Gal(b1-4)GalNAc
# In short: as §1
# [12] = target: GlcNAc(a1-4)Gal(b1-4)GlcNAc
# In short: as §1
# [13] = target: GlcNAc(a1-4)Gal(b1-4)GlcNAc(b1-3)Gal(b1-4)Glc
# In short: as §1
# [14] = target: GlcNAc(a1-4)Gal(b1-4)GlcNAc(b1-3)Gal(b1-4)GlcNAc
# In short: as §1
# [15] = target: GlcNAc(a1-4)Gal(b1-4)GlcNAc(b1-3)Gal(b1-4)GlcNAc(b1-3)Gal(b1-4)GlcNAc
# In short: as §1
# [16] = target: GlcNAc(a1-4)Gal(b1-4)GlcNAc(b1-3)Gal(b1-4)[Fuc(a1-3)]GlcNAc(b1-3)Gal(b1-4)[Fuc(a1-3)]GlcNAc
# In short: as §1
# [17] = target: GlcNAc(a1-6)Gal(b1-4)GlcNAc
# In short: as §1
# [18] = target: GlcNAc(b1-2)Gal(b1-3)GalNAc
# In short: as §1
# [19] = target: GlcNAc(b1-2)Man(a1-3)[GlcNAc(b1-2)Man(a1-6)]Man(b1-4)GlcNAc(b1-4)GlcNAc
# In short: as §1
# [20] = target: GlcNAc(b1-2)Man(a1-3)[GlcNAc(b1-2)Man(a1-6)]Man(b1-4)GlcNAc(b1-4)[Fuc(a1-6)]GlcNAc
# In short: as §1
# [21] = target: GlcNAc(b1-2)Man(a1-3)[GlcNAc(b1-4)][GlcNAc(b1-2)Man(a1-6)]Man(b1-4)GlcNAc(b1-4)GlcNAc
# In short: as §1
# [22] = target: GlcNAc(b1-2)Man(a1-3)[GlcNAc(b1-4)][GlcNAc(b1-2)Man(a1-6)]Man(b1-4)GlcNAc(b1-4)[Fuc(a1-6)]GlcNAc
# In short: as §1
# [23] = target: GlcNAc(b1-2)[GlcNAc(b1-4)]Man(a1-3)[GlcNAc(b1-2)Man(a1-6)]Man(b1-4)GlcNAc(b1-4)GlcNAc
# In short: as §1
# [24] = target: GlcNAc(b1-2)[GlcNAc(b1-4)]Man(a1-3)[GlcNAc(b1-4)][GlcNAc(b1-2)Man(a1-6)]Man(b1-4)GlcNAc(b1-4)GlcNAc
# In short: as §1
# [25] = target: GlcNAc(b1-2)[GlcNAc(b1-4)]Man(a1-3)[GlcNAc(b1-4)][GlcNAc(b1-2)[GlcNAc(b1-6)]Man(a1-6)]Man(b1-4)GlcNAc(b1-4)GlcNAc
# In short: as §1
# [26] = target: GlcNAc(b1-2)[GlcNAc(b1-4)]Man(a1-3)[GlcNAc(b1-4)][GlcNAc(b1-2)[GlcNAc(b1-6)]Man(a1-6)]Man(b1-4)GlcNAc(b1-4)[Fuc(a1-6)]GlcNAc
# In short: as §1
# [27] = target: GlcNAc(b1-2)[GlcNAc(b1-6)]Man(a1-6)[GlcNAc(b1-2)Man(a1-3)]Man(b1-4)GlcNAc(b1-4)GlcNAc
# In short: as §1
# [28] = target: GlcNAc(b1-2)[GlcNAc(b1-6)]Man(a1-6)[GlcNAc(b1-2)Man(a1-3)]Man(b1-4)GlcNAc(b1-4)[Fuc(a1-6)]GlcNAc
# In short: as §1
# [29] = target: GlcNAc(b1-2)[GlcNAc(b1-6)]Man(a1-6)[GlcNAc(b1-4)][GlcNAc(b1-2)Man(a1-3)]Man(b1-4)GlcNAc(b1-4)GlcNAc
# In short: as §1
# GlcNAc(b1-3)Fuc = target: GlcNAc(b1-3)Fuc
# In short: as §1
# GlcNAc(b1-3)Gal = target: GlcNAc(b1-3)Gal
# In short: as §1
# [30] = target: GlcNAc(b1-3)Gal(b1-3)GalNAc
# In short: as §1
binder,measurement,setting,value
"FliC (Pseudomonas aeruginosa), P72151 (protein) MALTVNTNIASLNTQRNLNASSNDLNTSLQRLTTGYRINSAKDDAAGLQISNRLSNQISGLNVATRNANDGISLAQTAEGALQQSTNILQRIRDLALQSANGSNSDADRAALQKEVAAQQAELTRISDTTTFGGRKLLDGSFGTTSFQVGSNAYETIDISLQNASASAIGSYQVGSNGAGTVASVAGTATASGIASGTVNLVGGGQVKNIAIAAGDSAKAIAEKMDGAIPNLSARARTVFTADVSGVTGGSLNFDVTVGSNTVSLAGVTSTQDLADQLNSNSSKLGITASINDKGVLTITSATGENVKFGAQTGTATAGQVAVKVQGSDGKFEAAAKNVVAAGTAATTTIVTGYVQLNSPTAYSVSGTGTQASQVFGNASAAQKSSVASVDISTADGAQNAIAVVDNALAAIDAQRADLGAVQNRFKNTIDNLTNISENATNARSRIKDTDFAAETAALSKNQVLQQAGTAILAQANQLPQAVLSLLR",glycan array binding signal (z-score),[1],-0.198
same,glycan array binding signal (z-score),[2],0.194
same,glycan array binding signal (z-score),[3],-0.215
same,glycan array binding signal (z-score),GalNAc(b1-4)GlcNAc6S,-0.207
same,glycan array binding signal (z-score),GalNAc(b1-6)GalNAc,-0.182
same,glycan array binding signal (z-score),GalNAc3S(b1-4)GlcNAc,-0.135
same,glycan array binding signal (z-score),GalNAc3S(b1-4)GlcNAc3S,0.303
same,glycan array binding signal (z-score),[4],-0.192
same,glycan array binding signal (z-score),GalNAc4S6S(b1-4)GlcNAc,0.021
same,glycan array binding signal (z-score),GalNAc6S(b1-4)GlcNAc,-0.203
same,glycan array binding signal (z-score),Glc(a1-4)Glc,-0.187
same,glycan array binding signal (z-score),[5],0.297
same,glycan array binding signal (z-score),Glc(a1-6)Glc(a1-6)Glc,-0.231
same,glycan array binding signal (z-score),[6],-0.13
same,glycan array binding signal (z-score),Glc(b1-4)Glc,-0.17
same,glycan array binding signal (z-score),Glc(b1-6)Glc,-0.164
same,glycan array binding signal (z-score),GlcA(b1-3)Gal,-0.112
same,glycan array binding signal (z-score),GlcA(b1-3)GlcNAc,-0.17
same,glycan array binding signal (z-score),GlcA(b1-6)Gal,-0.157
same,glycan array binding signal (z-score),[7],-0.13
same,glycan array binding signal (z-score),[8],-0.191
same,glycan array binding signal (z-score),[9],-0.152
same,glycan array binding signal (z-score),[10],-0.117
same,glycan array binding signal (z-score),[11],-0.194
same,glycan array binding signal (z-score),[12],-0.239
same,glycan array binding signal (z-score),[13],-0.112
same,glycan array binding signal (z-score),[14],-0.089
same,glycan array binding signal (z-score),[15],0.478
same,glycan array binding signal (z-score),[16],0.242
same,glycan array binding signal (z-score),[17],0.195
same,glycan array binding signal (z-score),[18],-0.18
same,glycan array binding signal (z-score),[19],-0.158
same,glycan array binding signal (z-score),[20],-0.228
same,glycan array binding signal (z-score),[21],-0.119
same,glycan array binding signal (z-score),[22],-0.041
same,glycan array binding signal (z-score),[23],-0.095
same,glycan array binding signal (z-score),[24],1.69
same,glycan array binding signal (z-score),[25],-0.202
same,glycan array binding signal (z-score),[26],-0.078
same,glycan array binding signal (z-score),[27],-0.142
same,glycan array binding signal (z-score),[28],-0.175
same,glycan array binding signal (z-score),[29],-0.117
same,glycan array binding signal (z-score),GlcNAc(b1-3)Fuc,-0.165
same,glycan array binding signal (z-score),GlcNAc(b1-3)Gal,-0.205
same,glycan array binding signal (z-score),[30],-0.01
